Reference: publication PMC9911399, “Two distinct binding modes provide the RNA-binding protein RbFox with extraordinary sequence specificity”
Substitutions are numbered along the chain they refer to; changes in the protein carry UniProt numbers. The list shows a part of the results.

T1: RBFOX1 RRM (Homo sapiens, UniProt Q9NWB1 109-208)
T1 sequence: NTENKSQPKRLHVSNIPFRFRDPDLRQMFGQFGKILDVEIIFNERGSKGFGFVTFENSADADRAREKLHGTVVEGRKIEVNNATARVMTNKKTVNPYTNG

B1: AGACACA (DNA:RNA)
RNA: GGGAGACCGGAAUUCAGAUUGUCCAGACACAUUAAAUCCCGUCGUAGCCACCA
DNA 1: CAATCTGAATTCCGGTCTCCC
DNA 2: TGGTGGCTACGACGGGATT
B2: GGUGGCC (DNA:RNA)
RNA: B1 RNA with A25G, A27U, C28G, A29G, A31C
DNA 1: CAATCTGAATTCCGGTCTCCC
DNA 2: TGGTGGCTACGACGGGATT
B3: GUUCCAU (DNA:RNA)
RNA: B1 RNA with A25G, G26U, A27U, A29C, C30A, A31U
DNA 1: CAATCTGAATTCCGGTCTCCC
DNA 2: TGGTGGCTACGACGGGATT
B4: AUAGGUG (DNA:RNA)
RNA: B1 RNA with G26U, C28G, A29G, C30U, A31G
DNA 1: CAATCTGAATTCCGGTCTCCC
DNA 2: TGGTGGCTACGACGGGATT
B5: CACAUCU (DNA:RNA)
RNA: B1 RNA with A25C, G26A, A27C, C28A, A29U, A31U
DNA 1: CAATCTGAATTCCGGTCTCCC
DNA 2: TGGTGGCTACGACGGGATT
B6: AGGGAGG (DNA:RNA)
RNA: B1 RNA with A27G, C28G, C30G, A31G
DNA 1: CAATCTGAATTCCGGTCTCCC
DNA 2: TGGTGGCTACGACGGGATT
B7: UCUGUAG (DNA:RNA)
RNA: GGGAGACCGGAAUUCAGAUUGUCCUCUGUAGUUAAAUCCCGUCGUAGCCACCA
DNA 1: CAATCTGAATTCCGGTCTCCC
DNA 2: TGGTGGCTACGACGGGATT
B8: AUCGACA (DNA:RNA)
RNA: B1 RNA with G26U, A27C, C28G
DNA 1: CAATCTGAATTCCGGTCTCCC
DNA 2: TGGTGGCTACGACGGGATT
B9: CCACGCU (DNA:RNA)
RNA: B1 RNA with A25C, G26C, A29G, A31U
DNA 1: CAATCTGAATTCCGGTCTCCC
DNA 2: TGGTGGCTACGACGGGATT
B10: AUUUGCG (DNA:RNA)
RNA: B1 RNA with G26U, A27U, C28U, A29G, A31G
DNA 1: CAATCTGAATTCCGGTCTCCC
DNA 2: TGGTGGCTACGACGGGATT
B11: CCUUUAU (DNA:RNA)
RNA: B7 RNA with U25C, G28U, G31U
DNA 1: CAATCTGAATTCCGGTCTCCC
DNA 2: TGGTGGCTACGACGGGATT
B12: ACGCGAG (DNA:RNA)
RNA: B7 RNA with U25A, U27G, G28C, U29G
DNA 1: CAATCTGAATTCCGGTCTCCC
DNA 2: TGGTGGCTACGACGGGATT
B13: CGCGUUG (DNA:RNA)
RNA: B7 RNA with U25C, C26G, U27C, A30U
DNA 1: CAATCTGAATTCCGGTCTCCC
DNA 2: TGGTGGCTACGACGGGATT
B14: CGUGGGU (DNA:RNA)
RNA: B7 RNA with U25C, C26G, U29G, A30G, G31U
DNA 1: CAATCTGAATTCCGGTCTCCC
DNA 2: TGGTGGCTACGACGGGATT
B15: AAGUUGA (DNA:RNA)
RNA: B1 RNA with G26A, A27G, C28U, A29U, C30G
DNA 1: CAATCTGAATTCCGGTCTCCC
DNA 2: TGGTGGCTACGACGGGATT
B16: ACUCAAC (DNA:RNA)
RNA: B1 RNA with G26C, A27U, C30A, A31C
DNA 1: CAATCTGAATTCCGGTCTCCC
DNA 2: TGGTGGCTACGACGGGATT
B17: UGGGGAG (DNA:RNA)
RNA: B7 RNA with C26G, U27G, U29G
DNA 1: CAATCTGAATTCCGGTCTCCC
DNA 2: TGGTGGCTACGACGGGATT
B18: CAACCUC (DNA:RNA)
RNA: B1 RNA with A25C, G26A, A29C, C30U, A31C
DNA 1: CAATCTGAATTCCGGTCTCCC
DNA 2: TGGTGGCTACGACGGGATT
B19: GCGACUC (DNA:RNA)
RNA: B7 RNA with U25G, U27G, G28A, U29C, A30U, G31C
DNA 1: CAATCTGAATTCCGGTCTCCC
DNA 2: TGGTGGCTACGACGGGATT
B20: GUAAAGC (DNA:RNA)
RNA: B1 RNA with A25G, G26U, C28A, C30G, A31C
DNA 1: CAATCTGAATTCCGGTCTCCC
DNA 2: TGGTGGCTACGACGGGATT
B21: GUGAUCG (DNA:RNA)
RNA: B7 RNA with U25G, C26U, U27G, G28A, A30C
DNA 1: CAATCTGAATTCCGGTCTCCC
DNA 2: TGGTGGCTACGACGGGATT
B22: GGUUGAC (DNA:RNA)
RNA: B7 RNA with U25G, C26G, G28U, U29G, G31C
DNA 1: CAATCTGAATTCCGGTCTCCC
DNA 2: TGGTGGCTACGACGGGATT
B23: ACAUGUC (DNA:RNA)
RNA: B1 RNA with G26C, C28U, A29G, C30U, A31C
DNA 1: CAATCTGAATTCCGGTCTCCC
DNA 2: TGGTGGCTACGACGGGATT
B24: CCAAGCG (DNA:RNA)
RNA: B1 RNA with A25C, G26C, C28A, A29G, A31G
DNA 1: CAATCTGAATTCCGGTCTCCC
DNA 2: TGGTGGCTACGACGGGATT
B25: CUAACUA (DNA:RNA)
RNA: B1 RNA with A25C, G26U, C28A, A29C, C30U
DNA 1: CAATCTGAATTCCGGTCTCCC
DNA 2: TGGTGGCTACGACGGGATT
B26: GUCAAAC (DNA:RNA)
RNA: B1 RNA with A25G, G26U, A27C, C28A, C30A, A31C
DNA 1: CAATCTGAATTCCGGTCTCCC
DNA 2: TGGTGGCTACGACGGGATT
B27: AGGUAAU (DNA:RNA)
RNA: B1 RNA with A27G, C28U, C30A, A31U
DNA 1: CAATCTGAATTCCGGTCTCCC
DNA 2: TGGTGGCTACGACGGGATT
B28: CGCCACG (DNA:RNA)
RNA: B1 RNA with A25C, A27C, A31G
DNA 1: CAATCTGAATTCCGGTCTCCC
DNA 2: TGGTGGCTACGACGGGATT
B29: CCUUCCU (DNA:RNA)
RNA: B7 RNA with U25C, G28U, U29C, A30C, G31U
DNA 1: CAATCTGAATTCCGGTCTCCC
DNA 2: TGGTGGCTACGACGGGATT
B30: GUAGAGU (DNA:RNA)
RNA: B1 RNA with A25G, G26U, C28G, C30G, A31U
DNA 1: CAATCTGAATTCCGGTCTCCC
DNA 2: TGGTGGCTACGACGGGATT
B31: CCAGUCU (DNA:RNA)
RNA: B7 RNA with U25C, U27A, A30C, G31U
DNA 1: CAATCTGAATTCCGGTCTCCC
DNA 2: TGGTGGCTACGACGGGATT

The binders below were run against T1, RBFOX1 RRM (assay: EMSA; HiTS-Eq, 1 nM pool, 10 min; buffer printed only for the single-RNA assays: 10 mM Tris pH 7.5, 150 mM NaCl, 3.4 mM EDTA, 0.001% NP-40, 30 C). Details: tags: His6 N-terminal (pET28a); label: 5' 32P.
Method in brief: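 Purified RbFox RRM, wild type or mutant, was incubated for 10 min in 50 µL with 1 nM of a 5′-radiolabelled RNA pool carrying 7 randomized nucleotides, whose flanks were annealed to DNA oligonucleotides, over a series of increasing protein concentrations. Unbound RNA was resolved on 8% native PAGE, cut out, reverse-transcribed, barcoded by PCR and sequenced on an Illumina HiSeq 2500. Relative association constants were derived from changes in read counts for each RNA species versus the control reaction and normalised to the cognate motif.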

Binder	binding signal
B1	0.00246 KA relative to UGCAUGU
B2	0.0122 KA relative to UGCAUGU
B3	0.00792 KA relative to UGCAUGU
B4	0.0137 KA relative to UGCAUGU
B5	0.000528 KA relative to UGCAUGU
B6	0.0245 KA relative to UGCAUGU
B7	0.0145 KA relative to UGCAUGU
B8	0.00164 KA relative to UGCAUGU
B9	0.00361 KA relative to UGCAUGU
B10	0.0185 KA relative to UGCAUGU
B11	0.00554 KA relative to UGCAUGU
B12	0.0108 KA relative to UGCAUGU
B13	0.0136 KA relative to UGCAUGU
B14	0.0119 KA relative to UGCAUGU
B15	0.015 KA relative to UGCAUGU
B16	0.00166 KA relative to UGCAUGU

Binder	binding signal
B17	0.0199 KA relative to UGCAUGU
B18	0.00479 KA relative to UGCAUGU
B19	0.0115 KA relative to UGCAUGU
B20	0.00707 KA relative to UGCAUGU
B21	0.0195 KA relative to UGCAUGU
B22	0.00376 KA relative to UGCAUGU
B23	0.00443 KA relative to UGCAUGU
B24	0.00169 KA relative to UGCAUGU
B25	0.00225 KA relative to UGCAUGU
B26	0.00195 KA relative to UGCAUGU
B27	0.00631 KA relative to UGCAUGU
B28	0.0114 KA relative to UGCAUGU
B29	0.00632 KA relative to UGCAUGU
B30	0.0112 KA relative to UGCAUGU
B31	0.00457 KA relative to UGCAUGU
